Hit rate of the full screen: of about 310,000 compounds, about 14,000 (4.5%) showed an effect of 50% or more. Effects have a minus sign here. The list shows a part of the results.
Biological target: human ether-à-go-go-related gene (hERG) potassium channel (human, UniProt Q12809)
Test: primary screen, population patch clamp on CHO cells stably expressing hERG
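Further: peak tail current of the secondary pulse compared with the same well before compound.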

Chain of human ether-à-go-go-related gene (hERG) potassium channel (Q12809 whole entry, looked up): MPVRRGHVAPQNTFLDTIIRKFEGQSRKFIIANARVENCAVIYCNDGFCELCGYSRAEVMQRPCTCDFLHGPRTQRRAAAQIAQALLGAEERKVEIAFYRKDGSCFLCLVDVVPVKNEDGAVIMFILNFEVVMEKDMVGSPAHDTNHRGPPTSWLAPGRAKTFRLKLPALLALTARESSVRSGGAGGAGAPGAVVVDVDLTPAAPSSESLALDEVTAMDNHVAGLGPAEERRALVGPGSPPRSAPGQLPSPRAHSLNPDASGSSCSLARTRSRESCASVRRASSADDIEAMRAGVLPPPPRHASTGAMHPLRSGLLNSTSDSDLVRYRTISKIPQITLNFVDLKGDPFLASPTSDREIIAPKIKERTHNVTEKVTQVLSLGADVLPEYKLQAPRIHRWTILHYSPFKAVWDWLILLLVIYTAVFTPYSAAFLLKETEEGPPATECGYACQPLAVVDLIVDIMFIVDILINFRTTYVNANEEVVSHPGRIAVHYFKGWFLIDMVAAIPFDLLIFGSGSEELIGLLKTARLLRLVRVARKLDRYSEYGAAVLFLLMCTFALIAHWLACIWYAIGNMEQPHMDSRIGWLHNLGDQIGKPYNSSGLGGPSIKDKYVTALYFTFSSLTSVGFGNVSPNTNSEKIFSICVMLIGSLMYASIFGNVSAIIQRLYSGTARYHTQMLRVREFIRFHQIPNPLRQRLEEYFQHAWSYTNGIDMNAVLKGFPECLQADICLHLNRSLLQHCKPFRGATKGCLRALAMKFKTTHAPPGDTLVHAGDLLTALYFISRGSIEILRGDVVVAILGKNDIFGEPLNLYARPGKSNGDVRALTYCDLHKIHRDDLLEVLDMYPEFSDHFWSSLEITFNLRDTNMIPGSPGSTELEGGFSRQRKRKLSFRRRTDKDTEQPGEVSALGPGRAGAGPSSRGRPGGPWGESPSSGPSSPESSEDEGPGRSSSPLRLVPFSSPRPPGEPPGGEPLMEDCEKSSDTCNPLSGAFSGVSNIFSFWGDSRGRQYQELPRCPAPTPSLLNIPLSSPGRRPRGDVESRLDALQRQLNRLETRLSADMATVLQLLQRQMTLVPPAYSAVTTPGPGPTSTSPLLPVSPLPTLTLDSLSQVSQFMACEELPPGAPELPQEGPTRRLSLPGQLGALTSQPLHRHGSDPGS

| SMILES | hERG current change (%, negative = inhibition) at 10uM [%] |
| --- | --- |
| COC(=O)COc1ccc(S(=O)(=O)Nc2cc([N+](=O)[O-])ccc2C)cc1 | 19.3 |
| O=C(Cc1cccc2ccccc12)N/N=C/c1ccc(O)c([N+](=O)[O-])c1 | -21.7 |
| Cc1c(Cc2ccccc2)c(=O)oc2cc(OCC(=O)NCc3ccccn3)ccc12 | 3.79 |
| CCCCCCCCN1[C@@H](CC(=O)OC)c2cc(F)ccc2S1(=O)=O | -33.2 |
| COc1cccc(C(=O)NCCS(=O)(=O)N2CCC3(CC2)OCCO3)c1 | 5.1 |
| CCO/C=C1/C(=O)N(Cc2ccccc2)C(=O)c2ccccc21 | 0.133 |
| O=C(Nc1ccccc1-c1ccccc1)c1cccc([N+](=O)[O-])c1 | -2.04 |
| COc1ccc2nc(N3C(=O)CNC3=S)sc2c1 | -1.63 |
| CSc1nc(-c2ccccc2)nc(NC(C)=O)c1C(C)=O | -23.9 |
| Cc1ccc(S(=O)(=O)N2CCN(CC(=O)Nc3ccc4c(c3)CCC4)CC2)cc1C | 16.6 |
| CN(C)N=Nc1ccc2nc[nH]c2c1 | 6.6 |
| O=C(CCCN1C(=O)/C(=C/c2ccco2)SC1=S)Nc1cccc(C(=O)O)c1 | 2.38 |
| CCn1c(CC(=O)Nc2ccc(C)cc2)nnc1SCC(=O)NCCc1ccccc1 | -4.96 |
| CC1CCc2ccccc2N1C(=O)c1cccs1 (stereo not drawn) | 2.28 |
| COC(=O)COc1ccc2c(=O)c(Oc3ccccc3)c(C)oc2c1 | 21.1 |
| CC(C)OC(=O)C(C(=O)C(F)(F)F)c1cc(NS(=O)(=O)c2ccc3ccccc3c2)c2ccccc2c1O (stereo not drawn) | -17.2 |
| O=C(c1ccccc1)N1N=C(c2ccccc2)CC1c1cccs1 (stereo not drawn) | 6.38 |
| CN(C)[C@@H]1C(=O)C(C(N)=O)=C(O)[C@@]2(O)C(=O)C3=C(O)c4c(O)cccc4[C@@](C)(O)C3[C@H](O)C12.O (stereo partly drawn) | -10.5 |
| C=C(C)CNC(=O)c1ccc(OC2CCN(S(=O)(=O)N(C)C)CC2)cc1 | 12.3 |

| SMILES | hERG current change (%, negative = inhibition) at 10uM [%] |
| --- | --- |
| Cc1ccc(S(=O)(=O)NCCc2cc3ccc(C)cc3[nH]c2=O)cc1 | -1.35 |
| CCN1CCN(c2ccc([N+](=O)[O-])cc2C=C2C(=O)NC(=O)NC2=O)CC1 | -66.3 |
| O=C(CN1C(=O)c2ccccc2C1=O)NCc1ccc(N2CCOCC2)cc1 | 14.1 |
| CCCCS(=O)(=O)Nc1ccc(C(=O)NCC2CCCO2)cc1 (stereo not drawn) | -4.69 |
| CCOC(=O)Nc1nnc(-c2cccc(OC)c2)s1 | -9.03 |
| CC(=O)c1c(C)[nH]c(C(=O)OCC(=O)N2CCCC2=O)c1C | 9.37 |
| COc1ccc(C)cc1S(=O)(=O)NCCN1CCOCC1 | 17.5 |
| COc1cc(CN(C(=S)NCC(=O)O)C2CCCC2)cc(OC)c1OC | 21.2 |
| CCNC(=S)NNC(=O)c1ccc2ncccc2c1 | 8.95 |
| Clc1cc(NCc2ccccc2)ncn1 | 19.9 |
| Cc1cccc(N2C(=O)C3CCCN3C2=S)c1C (stereo not drawn) | 8.46 |
| CCOC(=O)c1c(/N=C/c2cc(OC)cc([N+](=O)[O-])c2O)sc(C)c1C | 7.03 |
| Cc1ccc(C(CC(=O)O)C2CCOC(C)(C)C2)cc1 (stereo not drawn) | 9.61 |
| COc1ccccc1C(OC(=O)c1cccs1)C(=O)NCC1CCCO1 (stereo not drawn) | -3.77 |
| NC(=O)C1CCN(C(=O)C2CCC(=O)N(CC3CCCCC3)C2)CC1 (stereo not drawn) | 2.85 |
| CC(Cc1ccccc1)NC(=O)CCCCC(=O)NC(C)Cc1ccccc1 (stereo not drawn) | 9.95 |
| COc1cccc(C2CCCN2Cc2nc(CC3CC3)no2)c1 (stereo not drawn) | 27.6 |
| O=C(Nc1ccccc1[N+](=O)[O-])c1cccc(N2C(=O)CCC2=O)c1 | 6.64 |
| Cc1ccc(S(=O)(=O)N2CCCCC2CCNC(=O)C(=O)NCc2ccncc2)cc1 (stereo not drawn) | -28.1 |

| SMILES | hERG current change (%, negative = inhibition) at 10uM [%] |
| --- | --- |
| Cc1ccc(NCc2nnc(SCC(=O)Nc3cc(C)on3)n2C)cc1 | 12.1 |
| CCNCc1cc(Cl)c(OCc2ccccc2)c(OCC)c1.Cl | -8.51 |
| c1ccc(CCNc2nc(-c3ccccn3)nc3ccccc23)cc1 | -78.6 |
| Cc1ccc2[nH]c(C)c(CCNC(=O)C3CCCCC3C(=O)OCC(F)(F)F)c2c1 (stereo not drawn) | -1.93 |
| O=C(CCn1cncn1)N1CCN(S(=O)(=O)c2ccc(Cl)cc2)CC1 | 1.16 |
| CCOC(=O)Cc1csc(NC(=O)CSc2nnc(C(C)C)n2CC)n1 | 6.72 |
| CC(C)Oc1ccc(C2CC(=O)N(C)C2=O)cc1 (stereo not drawn) | 11.9 |
| CCC(C(=O)NCCCc1ccccc1)c1ccccc1 (stereo not drawn) | -20.3 |
| COc1cc2c(cc1OC)CN(C(=O)/C=C/c1ccc(F)cc1)CC2 | -22.2 |
| O=C1CCN(Cc2ccccc2)S(=O)(=O)c2ccccc21 | -1.02 |
| O=C(C1CC(=O)N(c2ccc3c(c2)OCCO3)C1)N1CCCC(C(F)(F)F)C1 (stereo not drawn) | 8.2 |
| COC(=O)C1=C(C)NC(=O)/C1=C\c1cc(C)n(-c2ccccc2)c1C | 20.3 |
| CCOc1ccc(C(=O)OCC(=O)NCc2ccco2)cc1OCC | -6.89 |
| Cc1ccc(C(C)C)c(OCC(=O)N/N=C2\CC(=O)CC(C)(C)C2)c1 | -16.7 |
| O=C(NCCSCc1ccccc1)c1ccc(C2SCC(=O)N2Cc2ccccc2)cc1 (stereo not drawn) | -8.07 |
| Cc1ccc(NC(=O)CCC(=O)NNC(=O)COc2ccccc2)c(C)c1 | 12.1 |
| CC(=O)NCCc1nc2cc(NS(=O)(=O)c3ccccc3)ccc2n1C | -2.3 |
| CCCCCCCCNC(=O)C(CCC(=O)OCc1ccccc1)NC(C)=O (stereo not drawn) | -13.1 |
| O=C(NC1CCCC1)c1ccc(Cl)s1 | 9.43 |
